Reference: paper PMC10185812
No constants are given. Whether binding was seen depends on the method and setting. Binding seen in cells or lysates may run through a third protein. Some binding calls cover weakened binding; strength is not graded here. For part of these data: Tags and fused reporters may be left off the sequences shown.

T1: 3xHA-C21ORF2 L224P (human) (UniProt O43822)
T1 sequence: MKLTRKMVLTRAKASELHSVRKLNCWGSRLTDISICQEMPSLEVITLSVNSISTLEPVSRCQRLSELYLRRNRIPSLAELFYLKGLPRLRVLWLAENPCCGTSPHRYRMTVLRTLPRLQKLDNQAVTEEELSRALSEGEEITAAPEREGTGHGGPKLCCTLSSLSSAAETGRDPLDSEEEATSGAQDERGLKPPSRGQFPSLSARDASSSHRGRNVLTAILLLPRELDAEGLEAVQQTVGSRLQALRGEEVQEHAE

T2: 3xHA-C21ORF2 T150I (human) (UniProt O43822)
T2 sequence: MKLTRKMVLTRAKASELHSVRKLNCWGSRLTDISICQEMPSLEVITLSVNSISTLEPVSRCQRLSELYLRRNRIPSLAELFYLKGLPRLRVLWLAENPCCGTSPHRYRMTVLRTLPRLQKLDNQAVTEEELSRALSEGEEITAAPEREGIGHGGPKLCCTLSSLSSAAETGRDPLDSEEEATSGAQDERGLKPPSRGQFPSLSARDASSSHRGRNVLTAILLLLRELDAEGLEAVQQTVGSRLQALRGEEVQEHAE

T3: 3xHA-C21ORF2 R73P (human) (UniProt O43822)
T3 sequence: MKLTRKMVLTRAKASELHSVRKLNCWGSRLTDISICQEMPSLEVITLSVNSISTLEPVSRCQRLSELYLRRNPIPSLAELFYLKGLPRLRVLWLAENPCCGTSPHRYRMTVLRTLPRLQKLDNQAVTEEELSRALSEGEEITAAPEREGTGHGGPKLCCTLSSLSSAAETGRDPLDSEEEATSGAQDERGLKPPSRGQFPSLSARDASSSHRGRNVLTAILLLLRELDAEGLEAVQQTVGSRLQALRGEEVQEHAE

T4: 3xHA-C21ORF2 (human) (UniProt O43822)
T4 sequence: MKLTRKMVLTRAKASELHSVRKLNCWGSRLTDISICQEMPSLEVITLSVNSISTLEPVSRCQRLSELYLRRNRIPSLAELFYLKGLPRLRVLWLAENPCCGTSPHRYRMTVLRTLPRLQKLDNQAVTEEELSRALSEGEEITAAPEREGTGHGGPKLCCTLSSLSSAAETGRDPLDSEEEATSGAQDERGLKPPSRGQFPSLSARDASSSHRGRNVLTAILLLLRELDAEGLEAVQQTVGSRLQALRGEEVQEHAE

T5: C21ORF2 L224P (lentiviral, UbC promoter, in C21ORF2-KO cells) (human) (UniProt O43822)
T5 sequence: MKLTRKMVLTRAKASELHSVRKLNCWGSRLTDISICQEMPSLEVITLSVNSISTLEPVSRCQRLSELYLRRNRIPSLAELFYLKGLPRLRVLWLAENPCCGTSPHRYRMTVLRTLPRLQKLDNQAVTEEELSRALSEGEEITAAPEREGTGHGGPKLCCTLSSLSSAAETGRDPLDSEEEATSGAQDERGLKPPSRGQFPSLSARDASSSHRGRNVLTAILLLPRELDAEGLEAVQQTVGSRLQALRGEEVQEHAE

T6: C21ORF2 R73P (lentiviral, UbC promoter, in C21ORF2-KO cells) (human) (UniProt O43822)
T6 sequence: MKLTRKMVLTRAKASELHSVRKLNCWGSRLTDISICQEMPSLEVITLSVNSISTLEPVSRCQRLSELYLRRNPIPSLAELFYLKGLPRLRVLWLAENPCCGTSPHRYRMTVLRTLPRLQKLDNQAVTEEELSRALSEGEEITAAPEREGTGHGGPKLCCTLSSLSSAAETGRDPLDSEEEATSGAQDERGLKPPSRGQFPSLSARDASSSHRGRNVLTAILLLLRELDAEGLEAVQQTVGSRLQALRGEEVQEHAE

T7: C21ORF2 (endogenous) (human (endogenous in ARPE-19, HeLa, HEK293, U2-O-S)) (UniProt O43822)
T7 sequence: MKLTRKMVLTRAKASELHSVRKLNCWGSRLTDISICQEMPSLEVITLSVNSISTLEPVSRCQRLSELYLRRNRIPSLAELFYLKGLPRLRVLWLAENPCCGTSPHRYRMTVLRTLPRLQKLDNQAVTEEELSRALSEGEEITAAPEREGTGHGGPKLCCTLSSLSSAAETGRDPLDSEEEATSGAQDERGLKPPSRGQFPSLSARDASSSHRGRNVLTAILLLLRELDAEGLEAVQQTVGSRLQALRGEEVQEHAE


Key:
[1] = target: T1, 3xHA-C21ORF2 L224P (human); assay: co-IP; ARPE-19 transiently co-transfected with 3xHA-C21ORF2 (WT or mutants) and 3xFLAG-NEK1; immunoprecipitation with anti-HA (the legend also names anti-FLAG); immunoblotting
[2] = target: T2, 3xHA-C21ORF2 T150I (human); assay: as above
[3] = target: T3, 3xHA-C21ORF2 R73P (human); assay: as above
[4] = target: T4, 3xHA-C21ORF2 (human); assay: as above
[5] = target: T5, C21ORF2 L224P (lentiviral, UbC promoter, in C21ORF2-KO cells) (human); assay: co-IP; NEK1-KO or C21ORF2-KO ARPE-19 cells transduced with lentivirus for WT or mutated NEK1 (CMV promoter) or C21ORF2 (UbC promoter); immunoprecipitation with antibodies against NEK1 or C21ORF2; immunoblotting
[6] = target: T6, C21ORF2 R73P (lentiviral, UbC promoter, in C21ORF2-KO cells) (human); assay: as above
[7] = target: T7, C21ORF2 (endogenous) (human (endogenous in ARPE-19, HeLa, HEK293, U2-O-S)); assay: co-IP; ARPE-19 cell extracts; immunoprecipitation with in-house sheep antibodies against NEK1 or C21ORF2 (sheep IgG as control); 4°C; washes with 50 mM Tris pH 7.4, 500 mM NaCl, 1% Triton X-100; immunoblotting
[8] = target: T7, C21ORF2 (endogenous) (human (endogenous in ARPE-19, HeLa, HEK293, U2-O-S)); assay: co-IP; HeLa, HEK293 and U2-O-S cell lysates; immunoprecipitation with in-house sheep anti-C21ORF2 or anti-NEK1 antibodies (sheep IgG beads as control); immunoblotting
[9] = target: T7, C21ORF2 (endogenous) (human (endogenous in ARPE-19, HeLa, HEK293, U2-O-S)); assay: co-IP; pooled gel filtration fractions of ARPE-19 extract; three rounds of immunodepletion with antibodies against NEK1 or C21ORF2 or sheep IgG; 4°C; washes with 50 mM Tris pH 7.4, 500 mM NaCl, 1% Triton X-100; beads and supernatants immunoblotted

Row | binding [1] | binding [2] | binding [3] | binding [4] | binding [5] | binding [6] | binding [7] | binding [8] | binding [9] | Binder
1 | binds | binds | binds | binds |  |  |  |  |  | 3xFLAG-NEK1 (protein, UniProt Q96PY6-3 1-1286) MEKYVRLQKIGEGSFGKAILVKSTEDGRQYVIKEINISRMSSKEREESRREVAVLANMKHPNIVQYRESFEENGSLYIVMDYCEGGDLFKRINAQKGVLFQEDQILDWFVQICLALKHVHDRKILHRDIKSQNIFLTKDGTVQLGDFGIARVLNSTVELARTCIGTPYYLSPEICENKPYNNKSDIWALGCVLYELCTLKHAFEAGSMKNLVLKIISGSFPPVSLHYSYDLRSLVSQLFKRNPRDRPSVNSILEKGFIAKRIEKFLSPQLIAEEFCLKTFSKFGSQPIPAKRPASGQNSISVMPAQKITKPAAKYGIPLAYKKYGDKKLHEKKPLQKHKQAHQTPEKRVNTGEERRKISEEAARKRRLEFIEKEKKQKDQIISLMKAEQMKRQEKERLERINRAREQGWRNVLSAGGSGEVKAPFLGSGGTIAPSSFSSRGQYEHYHAIFDQMQQQRAEDNEAKWKREIYGRGLPERGILPGVRPGFPYGAAGHHHFPDADDIRKTLKRLKAVSKQANANRQKGQLAVERAKQVEEFLQRKREAMQNKARAEGHMGILQNLAAMYGGRPSSSRGGKPRNKEEEVYLARLRQIRLQNFNERQQIKAKLRGEKKEANHSEGQEGSEEADMRRKKIESLKAHANARAAVLKEQLERKRKEAYEREKKVWEEHLVAKGVKSSDVSPPLGQHETGGSPSKQQMRSVISVTSALKEVGVDSSLTDTRETSEEMQKTNNAISSKREILRRLNENLKAQEDEKGKQNLSDTFEINVHEDAKEHEKEKSVSSDRKKWEAGGQLVIPLDELTLDTSFSTTERHTVGEVIKLGPNGSPRRAWGKSPTDSVLKILGEAELQLQTELLENTTIRSEISPEGEKYKPLITGEKKVQCISHEINPSAIVDSPVETKSPEFSEASPQMSLKLEGNLEEPDDLETEILQEPSGTNKDESLPCTITDVWISEEKETKETQSADRITIQENEVSEDGVSSTVDQLSDIHIEPGTNDSQHSKCDVDKSVQPEPFFHKVVHSEHLNLVPQVQSVQCSPEESFAFRSHSHLPPKNKNKNSLLIGLSTGLFDANNPKMLRTCSLPDLSKLFRTLMDVPTVGDVRQDNLEIDEIEDENIKEGPSDSEDIVFEETDTDLQELQASMEQLLREQPGEEYSEEEESVLKNSDVEPTANGTDVADEDDNPSSESALNEEWHSDNSDGEIASECECDSVFNHLEELRLHLEQEMGFEKFFEVYEKIKAIHEDEDENIEICSKIVQNILGNEHQHLYAKILHLVMADGAYQEDNDE
2 |  |  |  |  | binds | binds | binds | binds | binds | NEK1 (endogenous) (protein, UniProt Q96PY6-3 1-1286) MEKYVRLQKIGEGSFGKAILVKSTEDGRQYVIKEINISRMSSKEREESRREVAVLANMKHPNIVQYRESFEENGSLYIVMDYCEGGDLFKRINAQKGVLFQEDQILDWFVQICLALKHVHDRKILHRDIKSQNIFLTKDGTVQLGDFGIARVLNSTVELARTCIGTPYYLSPEICENKPYNNKSDIWALGCVLYELCTLKHAFEAGSMKNLVLKIISGSFPPVSLHYSYDLRSLVSQLFKRNPRDRPSVNSILEKGFIAKRIEKFLSPQLIAEEFCLKTFSKFGSQPIPAKRPASGQNSISVMPAQKITKPAAKYGIPLAYKKYGDKKLHEKKPLQKHKQAHQTPEKRVNTGEERRKISEEAARKRRLEFIEKEKKQKDQIISLMKAEQMKRQEKERLERINRAREQGWRNVLSAGGSGEVKAPFLGSGGTIAPSSFSSRGQYEHYHAIFDQMQQQRAEDNEAKWKREIYGRGLPERGILPGVRPGFPYGAAGHHHFPDADDIRKTLKRLKAVSKQANANRQKGQLAVERAKQVEEFLQRKREAMQNKARAEGHMGILQNLAAMYGGRPSSSRGGKPRNKEEEVYLARLRQIRLQNFNERQQIKAKLRGEKKEANHSEGQEGSEEADMRRKKIESLKAHANARAAVLKEQLERKRKEAYEREKKVWEEHLVAKGVKSSDVSPPLGQHETGGSPSKQQMRSVISVTSALKEVGVDSSLTDTRETSEEMQKTNNAISSKREILRRLNENLKAQEDEKGKQNLSDTFEINVHEDAKEHEKEKSVSSDRKKWEAGGQLVIPLDELTLDTSFSTTERHTVGEVIKLGPNGSPRRAWGKSPTDSVLKILGEAELQLQTELLENTTIRSEISPEGEKYKPLITGEKKVQCISHEINPSAIVDSPVETKSPEFSEASPQMSLKLEGNLEEPDDLETEILQEPSGTNKDESLPCTITDVWISEEKETKETQSADRITIQENEVSEDGVSSTVDQLSDIHIEPGTNDSQHSKCDVDKSVQPEPFFHKVVHSEHLNLVPQVQSVQCSPEESFAFRSHSHLPPKNKNKNSLLIGLSTGLFDANNPKMLRTCSLPDLSKLFRTLMDVPTVGDVRQDNLEIDEIEDENIKEGPSDSEDIVFEETDTDLQELQASMEQLLREQPGEEYSEEEESVLKNSDVEPTANGTDVADEDDNPSSESALNEEWHSDNSDGEIASECECDSVFNHLEELRLHLEQEMGFEKFFEVYEKIKAIHEDEDENIEICSKIVQNILGNEHQHLYAKILHLVMADGAYQEDNDE
